In patent US8067379B2, “Sulfur compounds as inhibitors of hepatitis C virus NS3 serine protease” (Schering Corporation, priority 2004, dated 2011):

Each compound was assayed against Recombinant heterodimeric HCV NS3/NS4A protease (strain 1a) (Hepatitis C virus genotype 1a, UniProt P27958) (assay: Spectrophotometric assay for HCV serine protease inhibitory activity (chromogenic ester substrates)). Details: Table 3, sulfone compounds; HCV serine protease; read-out: Ki* range.
Format: biochemical

Row | Structure (SMILES) | Ki [nM]
1 | C=CCCNC(=O)C(=O)C(CC1CCC1)NC(=O)[C@@H]1[C@@H]2[C@H](CN1C(=O)[C@@H](NC(=O)NC1(CS(C)(=O)=O)CCCCC1)C(C)(C)C)C2(C)C (stereo partly drawn) [Compound 220] | < 75
2 | C=CCCNC(=O)C(=O)C(CC1CCC1)NC(=O)[C@@H]1[C@@H]2[C@H](CN1C(=O)[C@@H](NC(=O)NC1(CS(=O)(=O)C(C)(C)C)CCCCC1)C(C)(C)C)C2(C)C (stereo partly drawn) [Compound 221] | < 75
3 | CC(C)(C)[C@H](NC(=O)NC1(CS(=O)(=O)Cc2ccco2)CCCCC1)C(=O)N1C[C@H]2[C@@H]([C@H]1C(=O)NC(CC1CC1)C(=O)C(N)=O)C2(C)C (stereo partly drawn) [Compound 222] | < 75
4 | C=CCCNC(=O)C(=O)C(CC1CC1)NC(=O)[C@@H]1[C@@H]2[C@H](CN1C(=O)[C@@H](NC(=O)NC1(CS(C)(=O)=O)CCCCC1)C(C)(C)C)C2(C)C (stereo partly drawn) [Compound 223] | < 75
5 | C=CCCNC(=O)C(=O)C(CC1CC1)NC(=O)[C@@H]1[C@@H]2[C@H](CN1C(=O)[C@@H](NC(=O)NC1(CS(=O)(=O)C(C)(C)C)CCCCC1)C(C)(C)C)C2(C)C (stereo partly drawn) [Compound 224] | < 75
6 | CC1(C)C[C@H]2[C@H](CN(C(=O)[C@@H](NC(=O)NC3(CS(C)(=O)=O)CCCCC3)C3CCCCC3)[C@@H]2C(=O)NC(CC2CC2)C(=O)C(N)=O)S1 (stereo partly drawn) [Compound 225] | 75 to 250
7 | CCCNC(=O)C(=O)C(CCC)NC(=O)[C@@H]1[C@@H]2[C@H](CN1C(=O)[C@@H](NC(=O)NC1(CS(C)(=O)=O)CCCCC1)C(C)(C)C)C2(C)C (stereo partly drawn) [Compound 226] | < 75
8 | C=CCNC(=O)C(=O)C(CCC)NC(=O)[C@@H]1[C@@H]2[C@H](CN1C(=O)[C@@H](NC(=O)NC1(CS(=O)(=O)CC)CCCCC1)C(C)(C)C)C2(C)C (stereo partly drawn) [Compound 227] | < 75
9 | C=CCNC(=O)C(=O)C(CCC)NC(=O)[C@@H]1[C@@H]2[C@H](CN1C(=O)[C@@H](NC(=O)NC1(CS(=O)(=O)C(C)(C)C)CCCCC1)C(C)(C)C)C2(C)C (stereo partly drawn) [Compound 228] | < 75
10 | CCCNC(=O)C(=O)C(CC1CC1)NC(=O)[C@@H]1[C@@H]2[C@H](CN1C(=O)[C@@H](NC(=O)NC1(CS(C)(=O)=O)CCCCC1)C(C)(C)C)C2(C)C (stereo partly drawn) [Compound 229] | < 75
11 | C=CCNC(=O)C(=O)C(CCC)NC(=O)[C@@H]1[C@@H]2[C@H](CN1C(=O)[C@@H](NC(=O)N[C@H](CS(=O)(=O)c1ccccn1)C(C)C)C(C)(C)C)C2(C)C (stereo partly drawn) [Compound 230] | > 250
12 | CC(C)[C@@H](CS(=O)(=O)c1ccccn1)NC(=O)N[C@H](C(=O)N1C[C@H]2[C@@H]([C@H]1C(=O)NC(CC1CC1)C(=O)C(N)=O)C2(C)C)C(C)(C)C (stereo partly drawn) [Compound 231] | < 75
13 | CCS(=O)(=O)CC1(NC(=O)N[C@H](C(=O)N2C[C@H]3[C@@H]([C@H]2C(=O)NC(CC2CCC2)C(=O)C(N)=O)C3(C)C)C(C)(C)C)CCCCC1 (stereo partly drawn) [Compound 232] | < 75
14 | Cc1occc1S(=O)(=O)CC1(NC(=O)N[C@H](C(=O)N2C[C@H]3[C@@H]([C@H]2C(=O)NC(CC2CC2)C(=O)C(N)=O)C3(C)C)C(C)(C)C)CCCCC1 (stereo partly drawn) [Compound 233] | < 75
15 | CC(C)(C)[C@H](NC(=O)NC1(CS(C)(=O)=O)CCCCC1)C(=O)N1C[C@H]2C[C@@H]([C@H]1C(=O)NC(CC1CC1)C(=O)C(N)=O)C2(C)C (stereo partly drawn) [Compound 234] | > 250
16 | CC(C)(C)[C@H](NC(=O)NC1(CS(C)(=O)=O)CCCCC1)C(=O)N1C[C@H]2C[C@@H]([C@H]1C(=O)NC(CC1CCC1)C(=O)C(N)=O)C2(C)C (stereo partly drawn) [Compound 235] | < 75
17 | C=CCNC(=O)C(=O)C(CCC)NC(=O)[C@@H]1[C@@H]2[C@H](CN1C(=O)[C@@H](NC(=O)NC1(CS(=O)(=O)Cc3ccco3)CCCCC1)C(C)(C)C)C2(C)C (stereo partly drawn) [Compound 236] | < 75
18 | C#CCCC(NC(=O)[C@@H]1[C@@H]2[C@H](CN1C(=O)[C@@H](NC(=O)NC1(CS(=O)(=O)Cc3ccco3)CCCCC1)C(C)(C)C)C2(C)C)C(=O)C(=O)NCC=C (stereo partly drawn) [Compound 237] | < 75
19 | CCCNC(=O)C(=O)C(CCC)NC(=O)[C@@H]1[C@@H]2[C@H](CN1C(=O)[C@@H](NC(=O)NC1(CS(=O)(=O)CC)CCCCC1)C(C)(C)C)C2(C)C (stereo partly drawn) [Compound 238] | < 75
20 | CCCNC(=O)C(=O)C(CCC)NC(=O)[C@@H]1[C@@H]2[C@H](CN1C(=O)[C@@H](NC(=O)NC1(CS(=O)(=O)C(C)(C)C)CCCCC1)C(C)(C)C)C2(C)C (stereo partly drawn) [Compound 239] | < 75
21 | CC(C)(C)[C@H](NC(=O)NC1(CS(=O)(=O)C(C)(C)C)CCCCC1)C(=O)N1C[C@H]2[C@@H]([C@H]1C(=O)NC(CC1CCC1)C(=O)C(N)=O)C2(C)C (stereo partly drawn) [Compound 240] | < 75
22 | C=CCNC(=O)C(=O)C(CCC)NC(=O)[C@@H]1CCCN1C(=O)[C@@H](NC(=O)NC1(CS(C)(=O)=O)CCCCC1)C(C)(C)C (stereo partly drawn) [Compound 241] | > 250
23 | C=CCNC(=O)C(=O)C(CCC)NC(=O)[C@@H]1[C@@H]2[C@H](CN1C(=O)[C@@H](NC(=O)NC1(CS(C)(=O)=O)CCCCC1)C1CCCCC1)C2(C)C (stereo partly drawn) [Compound 242] | < 75
24 | C=CCNC(=O)C(=O)C(CCC)NC(=O)[C@@H]1CCCN1C(=O)[C@@H](NC(=O)NC1(CS(=O)(=O)C(C)(C)C)CCCCC1)C(C)(C)C (stereo partly drawn) [Compound 243] | > 250

Row | Structure (SMILES) | Ki [nM]
25 | C=CCNC(=O)C(=O)C(CCC)NC(=O)[C@@H]1CCCN1C(=O)[C@@H](NC(=O)NC1(CS(=O)(=O)C(C)(C)C)CCCCC1)C1CCCCC1 (stereo partly drawn) [Compound 244] | < 75
26 | CC(C)(C)[C@H](NC(=O)NC1(CS(=O)(=O)c2ccccn2)CCCCC1)C(=O)N1C[C@H]2[C@@H]([C@H]1C(=O)NC(CC1CCC1)C(=O)C(N)=O)C2(C)C (stereo partly drawn) [Compound 245] | < 75
27 | C#CCCC(NC(=O)[C@@H]1[C@@H]2[C@H](CN1C(=O)[C@@H](NC(=O)NC1(CS(C)(=O)=O)CCCCC1)C(C)(C)C)C2(C)C)C(=O)C(=O)NCCC (stereo partly drawn) [Compound 246] | < 75
28 | CCCCC(NC(=O)[C@@H]1[C@@H]2[C@H](CN1C(=O)[C@@H](NC(=O)NC1(CS(=O)(=O)C(C)(C)C)CCCCC1)C(C)(C)C)C2(C)C)C(=O)C(=O)NCCC (stereo partly drawn) [Compound 247] | < 75
29 | C#CCCC(NC(=O)[C@@H]1[C@@H]2[C@H](CN1C(=O)[C@@H](NC(=O)NC1(CS(=O)(=O)C(C)(C)C)CCCCC1)C(C)(C)C)C2(C)C)C(=O)C(=O)NCCC (stereo partly drawn) [Compound 248] | < 75
30 | C#CCCC(NC(=O)[C@@H]1[C@@H]2[C@H](CN1C(=O)[C@@H](NC(=O)NC1(CS(=O)(=O)C(C)(C)C)CCCCC1)C(C)(C)C)C2(C)C)C(=O)C(=O)NCCC=C (stereo partly drawn) [Compound 249] | < 75
31 | C#CCCNC(=O)C(=O)C(CCC#C)NC(=O)[C@@H]1[C@@H]2[C@H](CN1C(=O)[C@@H](NC(=O)NC1(CS(=O)(=O)C(C)(C)C)CCCCC1)C(C)(C)C)C2(C)C (stereo partly drawn) [Compound 250] | < 75
32 | CCCCNC(=O)C(=O)C(CCCC)NC(=O)[C@@H]1[C@@H]2[C@H](CN1C(=O)[C@@H](NC(=O)NC1(CS(=O)(=O)C(C)(C)C)CCCCC1)C(C)(C)C)C2(C)C (stereo partly drawn) [Compound 251] | < 75
33 | C#CCCC(NC(=O)[C@@H]1[C@@H]2[C@H](CN1C(=O)[C@@H](NC(=O)NC1(CS(=O)(=O)C(C)(C)C)CCCCC1)C(C)(C)C)C2(C)C)C(=O)C(=O)NC (stereo partly drawn) [Compound 253] | < 75
34 | C#CCCC(NC(=O)[C@@H]1[C@@H]2[C@H](CN1C(=O)[C@@H](NC(=O)NC1(CS(=O)(=O)C(C)(C)C)CCCCC1)C(C)(C)C)C2(C)C)C(=O)C(=O)NCCOC (stereo partly drawn) [Compound 254] | < 75
35 | C=CCNC(=O)C(=O)C(CCC(F)(F)F)NC(=O)[C@@H]1[C@@H]2[C@H](CN1C(=O)[C@@H](NC(=O)NC1(CS(=O)(=O)c3ccccn3)CCCCC1)C(C)(C)C)C2(C)C (stereo partly drawn) [Compound 255] | < 75
36 | CCCNC(=O)C(=O)C(CCC)NC(=O)[C@@H]1CCCN1C(=O)[C@@H](NC(=O)NC1(CS(=O)(=O)C(C)(C)C)CCCCC1)C1CCCCC1 (stereo partly drawn) [Compound 256] | < 75
37 | C=CCNC(=O)C(=O)C(CCC)NC(=O)[C@@H]1[C@@H]2[C@H](CN1C(=O)[C@@H](NC(=O)NC1(CS(=O)(=O)c3ccccn3)CCCCC1)C(C)(C)C)C2(C)C (stereo partly drawn) [Compound 257] | < 75
38 | C#CCCC(NC(=O)[C@@H]1[C@@H]2[C@H](CN1C(=O)[C@@H](NC(=O)NC1(CS(=O)(=O)C(C)(C)C)CCCCC1)C(C)(C)C)C2(C)C)C(=O)C(=O)NCC#C (stereo partly drawn) [Compound 258] | < 75
39 | C#CCCC(NC(=O)[C@@H]1[C@@H]2[C@H](CN1C(=O)[C@@H](NC(=O)NC1(CS(=O)(=O)C(C)(C)C)CCCCC1)C(C)(C)C)C21CCCC1)C(=O)C(=O)NCC=C (stereo partly drawn) [Compound 259] | < 75
40 | C#CCCC(NC(=O)[C@@H]1[C@@H]2[C@H](CN1C(=O)[C@@H](NC(=O)NC1(CS(=O)(=O)C(C)(C)C)CCCCC1)C(C)(C)C)C2(C)C)C(=O)C(=O)NCCSC (stereo partly drawn) [Compound 260] | < 75
41 | CC(C)(C)[C@H](NC(=O)NC1(CS(=O)(=O)C(C)(C)C)CCCCC1)C(=O)N1C[C@H]2[C@@H]([C@H]1C(=O)NC(CC1CC1)C(=O)C(N)=O)C21CCCC1 (stereo partly drawn) [Compound 261] | < 75
42 | CCCC(NC(=O)[C@@H]1[C@@H]2[C@H](CN1C(=O)[C@@H](NC(=O)NC1(CS(=O)(=O)C(C)(C)C)CCCCC1)C(C)(C)C)C2(C)C)C(=O)C(N)=O (stereo partly drawn) [Compound 262] | < 75
43 | CCCCC(NC(=O)[C@@H]1[C@@H]2[C@H](CN1C(=O)[C@@H](NC(=O)NC1(CS(=O)(=O)C(C)(C)C)CCCCC1)C(C)(C)C)C2(C)C)C(=O)C(N)=O (stereo partly drawn) [Compound 263] | < 75
44 | CC(C)(C)[C@H](NC(=O)NC1(CS(=O)(=O)C(C)(C)C)CCCCC1)C(=O)N1C[C@H]2[C@@H]([C@H]1C(=O)NC(CC1CC1)C(=O)C(N)=O)C21CC1 (stereo partly drawn) [Compound 264] | < 75
45 | C#CCCC(NC(=O)[C@@H]1[C@@H]2[C@H](CN1C(=O)[C@@H](NC(=O)NC1(CS(=O)(=O)c3ccccn3)CCCCC1)C(C)(C)C)C2(C)C)C(=O)C(=O)NCC=C (stereo partly drawn) [Compound 265] | < 75
46 | C#CCCC(NC(=O)[C@@H]1[C@@H]2[C@H](CN1C(=O)[C@@H](NC(=O)NC1(CS(=O)(=O)C(C)(C)C)CCCCC1)C(C)(C)C)C2(C)C)C(=O)C(N)=O (stereo partly drawn) [Compound 266] | < 75
47 | CC(C)(C)[C@H](NC(=O)NC1(CCS(=O)(=O)C(C)(C)C)CCCCC1)C(=O)N1C[C@H]2[C@@H]([C@H]1C(=O)NC(CC1CC1)C(=O)C(N)=O)C2(C)C (stereo partly drawn) [Compound 267] | 75 to 250
48 | C#CCCC(NC(=O)[C@@H]1[C@@H]2[C@H](CN1C(=O)[C@@H](NC(=O)NC1(CCS(=O)(=O)C(C)(C)C)CCCCC1)C(C)(C)C)C2(C)C)C(=O)C(=O)NCC=C (stereo partly drawn) [Compound 268] | 75 to 250
